The results in this text go back to PubChem BioAssay AID485344 (National Center for Advancing Translational Sciences (NCATS), 2010).

Out of some 340,000 compounds screened, about 6,900 (2%) were called active. No stated cut-off is given here; in the data, active means inhibition above about 30%; inactive means below that, where a call was filed. The list shows a part of the results, in another mix than the full data. Where no call is shown, the source filed none. Peptide text beside a SMILES is read from it. * marks the point of attachment. Boc = CC(C)(C)OC(=O)*

The test addresses D(2) dopamine receptor (Homo sapiens) (UniProt P14416). Description: HTS Assay for Allosteric Antagonists of the Human D2 Dopamine Receptor: Primary Screen for Antagonists. Further: 0% is about no effect. The note with it: HEK293 TREx D2 cells, calcium flux, dopamine EC80; at 10 µM; stronger effect = higher value. In outline: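 Antagonism is scored as inhibition of an EC80 dopamine-evoked calcium signal in a force-coupled, tetracycline-inducible HEK293 T-REx D2 line, with compound present 180 s before agonist.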
Sequence of UniProt P14416 (P14416 whole entry, looked up): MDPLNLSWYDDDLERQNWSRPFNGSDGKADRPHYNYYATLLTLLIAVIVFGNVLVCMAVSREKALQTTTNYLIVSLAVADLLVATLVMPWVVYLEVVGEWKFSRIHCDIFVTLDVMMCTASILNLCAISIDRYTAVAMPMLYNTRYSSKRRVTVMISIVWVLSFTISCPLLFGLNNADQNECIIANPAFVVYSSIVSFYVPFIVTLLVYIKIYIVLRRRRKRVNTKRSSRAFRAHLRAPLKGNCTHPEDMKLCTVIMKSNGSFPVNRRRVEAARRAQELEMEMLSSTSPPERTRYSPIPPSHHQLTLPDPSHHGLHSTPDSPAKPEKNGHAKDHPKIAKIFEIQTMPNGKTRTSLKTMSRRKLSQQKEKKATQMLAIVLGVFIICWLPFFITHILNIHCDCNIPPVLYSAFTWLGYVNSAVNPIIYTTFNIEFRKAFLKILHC
(A change in cytosolic calcium serves as a functional read-out for many receptors and channels.)
As usually defined, the inhibition is the drop in the measured response relative to a control, in per cent. As to `COc1cc(Cl)c(C)cc1NC(=O)c1cnn(-c2ccc(C)cc2)c1-n1cccc1`, the inhibition is -6.02%. For `COc1ccc(OC)c(S(=O)(=O)Nc2cc3c(C(C)=O)c(C)oc3c3ccccc23)c1`, the inhibition was found to be 8.39%. Take `COC(=O)c1c(NC(=O)COc2cc(C)c(Cl)c(C)c2)sc2c1CCCC2`: the inhibition came out at 2.75%. As to `COc1cccc(C2CC(=O)Nc3c2c(=O)n(C)c2ncnn32)c1OC` (centres undefined), the inhibition turned out to be 7.17%. The value for `COc1ccc(-c2nnc(SCC(=O)Nc3ccc(C(C)=O)cc3)nc2-c2ccc(OC)cc2)cc1` was -21.2%. With `CCOc1ccc(NS(=O)(=O)c2ccc3c(c2)CCN3C(C)=O)cc1`, the inhibition was determined as 4.55%.

For the compound `Cc1ccc(OCC(=O)N(Cc2ccco2)C2CCS(=O)(=O)C2)cc1` (centres undefined), the inhibition came out at 26.3%.

Regarding `Cc1ccc(S(=O)(=O)NCC2CCC(C(=O)N(C)Cc3ccccc3)CC2)cc1` (centres undefined), the inhibition came out at 10.5%.

Take `CC(Oc1ccc(F)cc1)C(=O)Nc1cc(-c2ccc(F)c(F)c2)no1` (centres undefined): the inhibition was 8.09%. The value for `CCc1nnc2c(NCCc3ccc(OC)c(OC)c3)nc3ccccc3n12` was 2.75%.

With `Cc1ccc(C)c(N2CCN(C(=O)CCS(=O)(=O)c3ccc4c(c3)CC(=O)N4C)CC2)c1`, the inhibition was -1.19%.

In the case of `CCOc1ccc(CCNC(=O)c2c(C)oc3ncnc(N4CCOCC4)c23)cc1`, the inhibition came to 4.81%. The value for `Cc1cc(C)cc(NC(=O)CN(C)S(=O)(=O)c2ccc3[nH]c4c(c3c2)CCCC4)c1` was -3.98%; that for `Cc1ccc(NC(=O)CN2C(=O)COc3ccc(S(=O)(=O)N4CCCCCC4)cc32)cc1C` was 15.4%; that for `COc1ccc(CCNCC(=O)Nc2ccc(C)c(S(=O)(=O)N(C)C)c2)cc1` was active: 32.8%. On to `CCOc1cccc(CNc2ccc(O)cc2)c1OCc1ccccc1Cl`, for which the inhibition was -1.89%. The figure for `N#C/C(=C\c1ccc(-c2ccc(F)cc2F)o1)c1nc2ccccc2[nH]1` is -15.7%; for `COc1ccc(CNC(=O)c2ccc3[nH]c(C)c(C)c3c2)c(OC)c1` it is -4.39%; for `Cc1cc(C)cc(NC(=O)c2cccc(NC3=NC4CS(=O)(=O)CC4S3)c2)c1` (centres undefined) it is active: 34.1%. For the compound `COc1ccc(C(=O)Nc2ccc(OCc3cc(=O)n4ccccc4n3)cc2)cc1`, the inhibition was 0.822%. In the case of `Cc1ccc(-n2nnnc2C2CCN(S(=O)(=O)c3ccc(OC(F)(F)F)cc3)CC2)cc1`, the inhibition is -21.2%. The figure for `Cc1n[nH]c(C)c1S(=O)(=O)N(CC(=O)NCc1ccccc1Cl)c1ccc(C(C)C)cc1` is 19.9%; for `CCOc1ccccc1CNC(=O)CCc1cn(Cc2ccc(Cl)cc2)c2ccccc12` it is 20.1%. Consider `CCN(C(=O)Cn1c(=O)oc2cc(S(=O)(=O)N3CCCC3)ccc21)c1cccc(C)c1`, for which the inhibition is -9.95%. The value for `CC(C)Oc1ccc(CNC(=O)CCn2c(=O)c3cccn3c3ccc(F)cc32)cc1` was 25.4%. As to `O=C(Nc1ccc2c(c1)N(C1CCCC1)C(=O)c1ccccc1S2)c1cccc(F)c1`, the inhibition was -15.2%. The value for `COc1cccc(-n2c(=O)c3c(C)c(C(=O)N(C)C)sc3n(CC(=O)Nc3ccc(C)cc3Cl)c2=O)c1` was -4.62%. The value for `Cc1c(C)n(Cc2ccccc2)c2ccc(C(=O)NCCc3ccccc3Cl)cc12` was 14.1%; that for `CC(C)OCCCNC(=O)CN1C(=O)CSc2ccc(S(=O)(=O)N3CCCCC3)cc21` was -6.03%.

For `COc1cccc(CNC(=O)C2CCCN(c3ncnc4onc(-c5ccc(F)cc5)c34)C2)c1` (centres undefined), the inhibition is 6.06%. The value for `O=C(NCCc1csc(-c2cccc(F)c2)n1)c1ccc(Br)o1` was 10.2%; that for `Cc1ccc(Cl)cc1NCc1nnc2n1CCCCC2` was 14.3%; that for `O=C1CC(c2nc(-c3cccc(Cl)c3)no2)CN1c1ccc2c(c1)OCCO2` (centres undefined) was 11.8%. As for `CC(C)(C)OC(=O)N1CCCC1C(=O)NC(Cc1ccccc1)C(=O)O` (stereo not drawn) (Boc-Pro-Phe-OH; configuration not given here), the inhibition was active: 31.8%. The figure for `CC(=O)N1c2ccccc2C(=O)C1N1CCN(c2ccc(F)cc2)CC1` (centres undefined) is -11.9%; for `COc1ccc(NC(=O)c2ccc(CNS(=O)(=O)c3ccc4c(c3)C(C)(C)C(=O)N4C)cc2)cc1` it is -7.85%.

`CCCCN(C)C(=O)C1CCC(CNS(=O)(=O)c2ccc3c(c2)CC(C)N3C(C)=O)CC1` (centres undefined): the inhibition was 11.1%. In the case of `CCCc1nn2c(=O)cc(COc3ccc(/C=C(\C#N)C(=O)Nc4ccc(F)cc4)cc3)nc2s1`, the inhibition turned out to be 12%. Turning to `CCN(CC)C(=O)Cn1c(SCCOc2ccc(Cl)cc2)nc2ccccc21`, the inhibition came out at 15.6%.

As to `COc1cc(CN(C(=O)c2cccc(Cl)c2)c2ccccn2)cc(OC)c1OC`, the inhibition is -12%. For the compound `CC(C)(C)OC(=O)NCCCCCc1nnc(SCc2ccccc2)o1`, the inhibition was active: 35.8%.

As to `CCC(C(=O)N1CCN(c2ccccc2F)CC1)n1nc(C)c2sc3ccccc3c2c1=O` (centres undefined), the inhibition is 8.17%. The figure for `COc1ccc(NC(=O)CCn2nc(-c3ccccc3OC)c3c(C)cc(C)nc32)cc1` is 24.2%; for `Cc1ccccc1OCc1ccc(-c2nc(C#N)c(N3CCN(C)CC3)o2)o1` it is -6.4%; for `Cc1ccc(Cl)cc1N1CCN(C(=O)c2cccn3c(=O)c4cc(Cl)ccc4nc23)CC1` it is -19.6%. For `NNC(=O)c1ccc(COCC(F)(F)F)cc1`, the inhibition is active: 52.9%. The value for `CC1=C(C(=O)OCC(C)C)C(c2ccc(OCc3ccccc3)cc2)N2C(=O)CCSC2=N1` (centres undefined) was -21%; that for `Cc1ccc(-n2nc(C(=O)Nc3ccc(Cl)cn3)c3c4ccccc4n(C)c3c2=O)cc1` was 22.2%. For the compound `COc1ccc(C2C(=O)N(C3CCCCC3)CC(=O)N2CCc2ccc(OC)c(OC)c2)cc1` (centres undefined), the inhibition amounted to 19.4%. In the case of `Cc1ccc(C)c(CN2C(=O)C3(c4ccccc42)N(c2cccc(C(F)(F)F)c2)C(=O)CS3(=O)=O)c1` (centres undefined), the inhibition turned out to be 7.69%. The value for `CCOC(=O)c1cc(C)n(CC2CCC(C(=O)Nc3ccc(OCC)cc3)CC2)c1C` (centres undefined) was 2.4%; that for `COc1cc(NC(=O)c2nc3ccccc3nc2C)cc(OC)c1OC` was -8.65%; that for `Cc1ccc(Cl)cc1-n1ncc2c(NCCCn3ccnc3)ncnc21` was 19.8%.

On to `Cc1ccc2c(=O)cc(C(=O)Nc3sc4c(c3C(N)=O)CCCC4)oc2c1`, for which the inhibition is -4.56%. `O=C(C1CCN(S(=O)(=O)Cc2ccccc2)CC1)N1CCN(c2ccc(F)cc2)CC1`: the inhibition is 8.89%. The value for `O=C(C1CCCN(S(=O)(=O)c2ccc(Br)s2)C1)N1CCN(c2ccc(F)cc2)CC1` (centres undefined) was 3.55%. The value for `Cc1cc(NC(=O)CSc2nc3c([nH]c4ccccc43)c(=O)n2-c2ccccc2)no1` was -28.6%. On to `O=c1cc(-c2ccc(F)cc2)nc(SCc2nc(-c3cccc(Cl)c3)no2)[nH]1`, for which the inhibition was -15%. For the compound `CC(C)(C)n1nnnc1CN1CCN2CCCC2C1` (centres undefined), the inhibition was active: 36.8%.
